To fix the notation:
B1: LINE1-mini (parent)
chain: GGCAGAGCUCAACACAGCGUGGCAAAGUGGCUGUGGCUAGACUGCC

Read counts are not given, so values of variants with three or more changes are uncertain.

Among the data in the RNAGym collection of RNA variant scans (doi:10.7554/elife.90254) are self-cleavage values, retold here.

Variants of B1 are the subject of this data set. The data set is described as follows: self-cleavage, relative activity (ratio to wild type); higher = more cleavage; in vitro, sequencing; the parent is a self-cleaving ribozyme.
On to U9C C37A U43A C45G, for which the self-cleavage worked out at 0.05. Then U9G A12G G22U, with 0.07. Take U9C C13A U20G U32G U34C: the self-cleavage is 0. Then U9C U28A A41U, with 0.06. Take U9G A12C G29A: the self-cleavage turned out to be 0.02. Take U9C C13G A41U: the self-cleavage worked out at 0.01. Then U9C C15U A24U G36U, with 0.06. The same measure for U9C C10U G36U: 0.07.

Turning to U9C G19C G44A, the self-cleavage stood at 0.02. The same measure for U9C A12G A24U A25C A39C G40A C42G: 0.01; for U9C G19U C31A: 0.02; for U9C G17C G22C G27U U32A G36C A39U: 0.01. Then U9C A14G G29A, with 0.05; and U9C C10A U28C, with 0.08; and U9G A11U C31A, with 0.03. As to U9C C13U G17C U28A G36A C42A C46A, the self-cleavage came out at 0.01. Then U9G A14U C18U, with 0.18. On to U9C C10G C37U C46A, for which the self-cleavage is 0.01. Consider U9C C18G G35U C42G, for which the self-cleavage was found to be 0.02.

Turning to U9G C13A A16C U38C, the self-cleavage was 0.04. The same measure for U9G C10A A24U: 0; for U9G C10U G17A: 0.23. Turning to U9G C10U G17U, the self-cleavage is 0.07. The same measure for U9C G33U C37U U38C: 0.02; for U9C A11G G27C G36U G40A C42G C45A: 0.01; for U9C C23A G30A C31G G33A: 0.03. For U9G C10U A39U, the self-cleavage turned out to be 0.06. The same measure for U9C G21U G36A U38A: 0.02; for U9C U20C G29A: 0.03; for U9C U32C C37A: 0.02. The same measure for U9G A11U C13A U28C: 0.01; for U9C A12C U20G A25G: 0.02; for U9C C13G G17A G29U: 0.03. In the case of U9G A12C A24C, the self-cleavage was 0. The same measure for U9C A12G U34A G36A: 0.05; for U9C C18G C46U: 0.02; for U9G C13A A16U G17C: 0.02.

Turning to U9C G21A C31A, the self-cleavage was 0.03. In the case of U9G C10U A12G G40U, the self-cleavage came to 0.02. Then U9G C13U C15A C18A, with 0.41; and U9C A14C G22C C37A G40U, with 0.01; and U9C G21C G22A G29C U34G G35A, with 0.01. The same measure for U9C C23U U32G G33U C37U A39G: 0.02; for U9G A11G A24U G35A G40U: 0.06. On to U9G A25C U28G, for which the self-cleavage amounted to 0.08. Then U9C A14C G17A G21U G40C A41G, with 0.01; and U9C C13U C42A, with 0.02. Then U9C G33A G35C, with 0.03; and U9C C18G G22A G35A, with 0.03.

For U9G C10A G17A C18A G22A C45A, the self-cleavage turned out to be 0.01.

As for U9G A26G U32G G35U, the self-cleavage is 0.01. Then U9G C10A U20A G35C, with 0.01; and U9C A24C U32A C42U U43A, with 0.

For U9C A25U G35U, the self-cleavage was 0.05. As for U9C C18G G19C U20G G44U, the self-cleavage turned out to be 0.02. Take U9C C13A A16C G44U: the self-cleavage turned out to be 0.2.

Take U9G A14C A26G: the self-cleavage was determined as 0.05. Then U9G A16C A24U, with 0.01; and U9C G29A G33U C37A, with 0.01; and U9C A16G U32G, with 0.01.

Consider U9G A26G U43C G44C, for which the self-cleavage was 0.02. On to U9G A12U G17U G21C A24U U32A A41U, for which the self-cleavage came out at 0.01. In the case of U9G A16G G17C C23A C45G, the self-cleavage turned out to be 0.2.

Turning to U9G A25C C31A C37A, the self-cleavage is 0.01. The same measure for U9C C13A C15A G33U: 0.02; for U9C C15U G21A: 0.04. Then U9C C13A A14C G17A, with 0.01; and U9C U28G G40U, with 0.02; and U9C G35U U43C C46U, with 0.31. Then U9G A11G G27U C46A, with 0.03; and U9C C18A U20G A24C C37U, with 0.02.

U9C A11U A12U U34G A39C G44A: the self-cleavage was found to be 0.02. Then U9C C10G A12U U28G C37A U38G, with 0; and U9C C18G C23U A24U, with 0.02. The same measure for U9C U20C G40U: 0.02. On to U9C G21C C23U C42U, for which the self-cleavage stood at 0.04. The same measure for U9G C10G U20C A41C C42A C45U: 0; for U9C A26C G36A U43C: 0.02; for U9C G17A G27A U34G G35U A39C: 0.01. U9G A11C C31A U34C: the self-cleavage is 0. For the variant U9C C18G G30C U38C, the self-cleavage was 0. Turning to U9C A16C A39U, the self-cleavage turned out to be 0. Consider U9G A11C G36C C37U, for which the self-cleavage came to 0.02. On to U9G A12C G19U U20C, for which the self-cleavage is 0.04. Then U9C A26C G30C G36U A39U C42A, with 0.01; and U9C G27U G36U, with 0.01. Then U9C C13G A25G G29U, with 0.01; and U9C C18A G33U, with 0.02; and U9C A14G G22C U38G C42A C45A, with 0. Then U9C C13A A14U G29A U32A U38A, with 0.02; and U9G C13G A14C C23U, with 0.1. As for U9C C23U C31G, the self-cleavage worked out at 0.01.

For U9C G19U A41C, the self-cleavage stood at 0.02. Then U9C C15G A16U G36A A41C, with 0.05; and U9G C10U G19C G29U, with 0.02; and U9G A11U G22A U28C C45G, with 0.02. Consider U9G A11C A12C G19A U20C C23U C45U, for which the self-cleavage is 0.

Take U9G A12C A14G A24G U43A: the self-cleavage was 0.02.

With U9G C13G C18A, the self-cleavage was 0.07. Then U9G A25G U43A, with 0.02; and U9G A25C G27A G36C U43A G44C, with 0.01. For the variant U9G A16U U28A U34A, the self-cleavage turned out to be 0.02.

On to U9C C10A U34C C42U, for which the self-cleavage was 0.04. As to U9C G36A U38A A41U, the self-cleavage amounted to 0.1. For U9C C10A G17C U20G A39G, the self-cleavage turned out to be 0.01.

In the case of U9C G17A G30C U34A G36U U38C C46G, the self-cleavage worked out at 0. U9C G19U U28C G33U: the self-cleavage is 0.02.

Turning to U9C C15A C31A, the self-cleavage is 0.01. The same measure for U9C G22U C23U: 0.02; for U9G A12C U34G: 0.03. On to U9C C10A A12G G27A, for which the self-cleavage was 0.04. The same measure for U9C G17A G40U C45G: 0.02; for U9G C10U A14U G17A C31U A39G: 0.03; for U9C C13A G33C: 0.02. Take U9C C15G G27U: the self-cleavage turned out to be 0.01. As for U9C U28A G30U U34C A41C, the self-cleavage came to 0.01. The same measure for U9G A12U G17A A24C: 0.03; for U9C U20G A26C: 0.02. Then U9C A14C C18G A25C G36U, with 0.01; and U9C A16U A26U U32A, with 0.02; and U9C G17C G29U C42G G44A, with 0.01.

Turning to U9G A14U C31G, the self-cleavage stood at 0.03. Then U9G A39G U43A, with 0.03. As for U9C A12G G35A U43A, the self-cleavage worked out at 0.04. Regarding U9C U20A G27U, the self-cleavage was 0.02.

On to U9C A16U U38C A39U A41C, for which the self-cleavage was determined as 0.01. The same measure for U9G A12U A26G: 0; for U9C C10G A39C: 0.02; for U9C C15G A25U G27A G30U A39G G44C: 0.03. Then U9C A12U U32C, with 0.02. Then U9G A16U A26U A41C, with 0.01; and U9C G27C G40A, with 0.01; and U9G A12G G17U C37G C42U C45G, with 0.06.

U9C G33A C46G: the self-cleavage was 0.05. Consider U9G A14U G30A C31G G40U, for which the self-cleavage worked out at 0.02.

In the case of U9G C10G G27A C45U C46A, the self-cleavage was 0.01.

In the case of U9G C13A A24G, the self-cleavage was found to be 0.05. The same measure for U9G C13G G29U C46A: 0.06; for U9G A12U C13G A24G A39U G44A: 0.05; for U9C G36U G44U: 0.01. The same measure for U9C U28C C46G: 0.02; for U9C C15A G17U C18A G22U G35U G36C C42G C45G: 0. As for U9C A24G G35U A39C, the self-cleavage was 0.01. As to U9C G17C C18G G22U A41C, the self-cleavage is 0.01. Then U9C A14G A24G A26C, with 0; and U9C C18U G40U, with 0.02.

Regarding U9G A11C C37U C42A C45U, the self-cleavage stood at 0. The same measure for U9C G21A G27A G40U: 0.06. The same measure for U9G A12G C18U G40U: 0.02; for U9C C23G A25C U34A G35A: 0.01.

U9C A14U G19A A39G: the self-cleavage was found to be 0.01. The same measure for U9G C10U G33C: 0.04; for U9G A11U A12G: 0.22; for U9C A14U C23G A25U U38C: 0.01. With U9C C13G U20C A25G U32G C46G, the self-cleavage is 0.02. The same measure for U9G A16U C45A: 0.01; for U9G A16G C37A C45A: 0.32. Then U9C A12C A25U, with 0.01. Then U9G C13G C46G, with 0.04; and U9C A11U A12U A24U G33U, with 0.01; and U9G C10A C18A G22U U28G U34A, with 0.02. In the case of U9G C10A G29C, the self-cleavage was found to be 0.02.

U9C G22U G36U: the self-cleavage was 0.05. In the case of U9G A14U U20A, the self-cleavage came to 0.04.

Take U9C U28C U34C G36A C42U: the self-cleavage worked out at 0.02. On to U9C C18G G29U, for which the self-cleavage was 0.04. For the variant U9C A12C C18U G22C A41U, the self-cleavage was 0.02.
